Patent US20070101461A1, “Method for Improving Phytoremediation Treatment of a Contaminated Medium” (priority 2001, published 2007)

Tests used:
[1] = system: Pisum sativum var. Early Onward; test: survival of plants in the presence of 2,4-D; type: in vivo; details: Pea, 1 mg/l 2,4-D
[2] = system: Pisum sativum var Early Onward; test: phyto-toxic effects of 2,4-D on pea plants (roots, chlorophyll)

## O=C(O)COc1ccc(Cl)cc1Cl [2,4-D, 2,4-dichlorophenoxyacetic acid]
[1]
  Dead plants, Non-inoculated plants + 2,4-D: 80%
  Healthy plants, Non-inoculated plants + 2,4-D: 20%
[2]; applications of 2,4-D
  chlorophyll a and b levels: statistically significant reductions
[2]; even at the lowest level of 2,4-D tested
  root systems of non-inoculated plants: severe callus formation and root thickening
